The results in this text go back to the RNAGym collection of RNA variant scans (doi:10.7554/elife.90254).

The chains are these.
B1: LINE1-mini (parent)
chain: GGCAGAGCUCAACACAGCGUGGCAAAGUGGCUGUGGCUAGACUGCC

Read counts are not given, so values of variants with three or more changes are uncertain.

This data set covers variants of B1. The data set can be described thus: self-cleavage, relative activity (ratio to wild type); higher = more cleavage; in vitro, sequencing; the parent is a self-cleaving ribozyme.
In the case of C8A G29U G35U, the self-cleavage stood at 0.02.

In the case of A12C U34C U38G U43A C45U, the self-cleavage stood at 0.

With G5A C10U G21A C23U G27C G33C G40A, the self-cleavage turned out to be 0.03.

For the variant C13A A24C C46U, the self-cleavage stood at 0.01.

With G21U G33C C37U, the self-cleavage amounted to 0.03.

As for C3G A24G G33U C37U, the self-cleavage is 0.04.

Consider G17A G22U C37U, for which the self-cleavage is 0.04.

Regarding G2A A16G G17U G29U G40A, the self-cleavage is 0.13.

Consider A6G C13A G17C C42G, for which the self-cleavage turned out to be 0.03.

For the variant A11C C13G A39C, the self-cleavage was 0.02.

With G30A U38A U43G C46A, the self-cleavage stood at 0.01.

On to A11U G19A G21U U43G, for which the self-cleavage worked out at 0.

As to G2A A11G U38C, the self-cleavage is 0.02.

With G2C A11U U28A C45A, the self-cleavage amounted to 0.01.

With G7U G30C G40U, the self-cleavage is 0.35.

G21A G36U G44A C46G: the self-cleavage is 0.04.

Consider G1C G36C A39G U43A G44A, for which the self-cleavage came to 0.01.

On to A14G C42G C46A, for which the self-cleavage is 0.03.

With C13A A14U C15U G29C G33A, the self-cleavage amounted to 0.11.

Take C3U G22A U43A: the self-cleavage stood at 0.14.

In the case of G2C A14G G27U C45U, the self-cleavage was 0.01.

As for G7C U32A G35U, the self-cleavage amounted to 0.04.

Consider G7C C13A C23U, for which the self-cleavage stood at 0.09.

C8A A14U C37G: the self-cleavage came to 0.05.

Regarding G17C G29C U34G C37U, the self-cleavage was 0.

A4C C31A G44U: the self-cleavage is 0.08.

For the variant A6C C13U A39U A41C, the self-cleavage worked out at 0.04.

As for G1U U32G G35U, the self-cleavage was determined as 0.01.

As to A6U C13A G27U A41C, the self-cleavage came out at 0.02.

On to G5A A25G C45U, for which the self-cleavage was determined as 0.04.

In the case of G1A A4G A14C G19C C46U, the self-cleavage is 0.05.

Turning to U9G C18A U34G, the self-cleavage turned out to be 0.09.

For A11U C31U U32C, the self-cleavage stood at 0.02.

For the variant A6U G7C A12C U20A A41G, the self-cleavage came to 0.

U9C G35C U38G: the self-cleavage amounted to 0.03.

Turning to U9G A16U A39G, the self-cleavage came to 0.02.

In the case of G1A U9G G40U U43A, the self-cleavage came to 0.05.

In the case of A11U G22C A25C, the self-cleavage was determined as 0.04.

As to G36C A41U C42U, the self-cleavage turned out to be 0.13.

As to G1A C23G C31U, the self-cleavage was 0.13.

On to G2U C8U G17A G29A, for which the self-cleavage amounted to 0.03.

Turning to U9G A11G A24G C45U, the self-cleavage amounted to 0.01.

With C13G G19C A24C, the self-cleavage was determined as 0.24.

For C8A U28A U38A A39G, the self-cleavage was 0.08.

Take U9C G17A C45A: the self-cleavage is 0.03.

Regarding G2U U20G G21C U32G A39C, the self-cleavage worked out at 0.

For the variant C3G A4G G7U C8G U9A, the self-cleavage worked out at 0.12.

For the variant C8U A11U C15U G33A C37G U38C G40A, the self-cleavage stood at 0.01.

As for G5U G33U G36U, the self-cleavage worked out at 0.04.

For A12U G21C A39U, the self-cleavage worked out at 0.06.

For C3U A26G U28A, the self-cleavage worked out at 0.16.

For the variant G7C U20A G35U G36C, the self-cleavage was found to be 0.03.

Consider G1A G22C A25G A39C, for which the self-cleavage was 0.04.

C15A C18G C42A: the self-cleavage was determined as 0.02.

For the variant G1U G21U G22A, the self-cleavage stood at 1.8.

C3U C10G C37A U43C C45A: the self-cleavage turned out to be 0.01.

On to C15A G19U C31A U32C, for which the self-cleavage came out at 0.01.

On to A4G A11U G21A C37A, for which the self-cleavage came out at 0.01.

Consider A12G A14C U34A, for which the self-cleavage is 0.02.

For the variant G1U G5U C18U, the self-cleavage came to 0.02.

Take G1C C15A A16G C18A: the self-cleavage turned out to be 0.01.

For A12C G21A U38A, the self-cleavage stood at 0.

G21C G30C G33A G35A: the self-cleavage is 0.05.

With C8G C37A G40U, the self-cleavage amounted to 0.2.

Regarding U9A C10U C42G C45A, the self-cleavage came to 0.03.

In the case of U28A U34A C42A, the self-cleavage came out at 0.07.

As for U9A G22A G30U G33U, the self-cleavage was determined as 0.06.

Take C8A U28A G35C C37U: the self-cleavage worked out at 0.05.

G2U A4C A26G U34A C46A: the self-cleavage turned out to be 0.02.

Regarding A25G G27U U34A G35A, the self-cleavage was determined as 0.04.

Take A12U A41U G44C: the self-cleavage was 0.1.

C15G A24G G30U: the self-cleavage worked out at 0.13.

As to G7U C13A G22A G27A C31A A39G, the self-cleavage was 0.08.

For the variant G2A G5A C10U C42A, the self-cleavage came to 0.06.

For the variant G17A C18U A41C, the self-cleavage amounted to 0.01.

In the case of G1U A14C G19C G22C C23A G27A G30A, the self-cleavage stood at 0.

In the case of C15A U32A C42G, the self-cleavage is 0.03.

For G2C A16U U43A, the self-cleavage turned out to be 0.03.

With G5C C13U A14C U34A U43C, the self-cleavage is 0.02.

Turning to G7A C13G C45U, the self-cleavage was 0.02.

As to G30A U34C G36U U38G, the self-cleavage was determined as 0.1.

Turning to G7C C8G C18G, the self-cleavage turned out to be 0.1.

In the case of G2C A26G C42A, the self-cleavage was 0.02.

Turning to A4G A11C C18A G35U, the self-cleavage turned out to be 0.02.

For the variant G27U G33U U34C, the self-cleavage came to 0.02.

Regarding C3G A12C C18U G40U, the self-cleavage amounted to 0.

Take C10U A25U G29A A39U: the self-cleavage turned out to be 0.19.

For G2U G33A U38A G40A, the self-cleavage was 0.01.

C3U G22C A25G A41U: the self-cleavage was 0.1.

For the variant G2A C10A U28G, the self-cleavage came out at 0.07.

As for G2A A4U G21U A26C G40U, the self-cleavage was found to be 0.03.

On to G5U A16C G27C G40A, for which the self-cleavage is 0.01.

Take C8A C10A C18U C31G: the self-cleavage stood at 0.03.

On to A6G C8U U28C A39G, for which the self-cleavage turned out to be 0.02.

Regarding G7U C10A G22A A25C, the self-cleavage was determined as 0.

As for G5C A26U G40C, the self-cleavage was found to be 0.03.

C23A C45U C46A: the self-cleavage worked out at 0.92.

A4G C18A G22C A26C: the self-cleavage amounted to 0.08.

In the case of G7U G17A G22A C23A G36A C37G A41G, the self-cleavage is 0.29.

Consider G7A C15A A39G C46U, for which the self-cleavage was 0.01.

As for G22U G27U C46A, the self-cleavage is 2.61.

Take C3A G33A U34C: the self-cleavage is 0.26.

Take A16G G17A G33A U38A: the self-cleavage was determined as 0.

Turning to A12G U20A C42G, the self-cleavage turned out to be 0.03.

Take A4G A12G G27U C31A: the self-cleavage was 0.14.

For G2C C13G A14U C23A U38A, the self-cleavage was determined as 0.01.

With G2C A4G A6U U9G G29U, the self-cleavage came to 0.08.

On to G21U U28A A41G, for which the self-cleavage amounted to 0.26.

Turning to C15U U28A C37A, the self-cleavage was determined as 0.11.

With C8A C10G C45A, the self-cleavage was determined as 0.02.

Take C15A A25C C31G U38A A41U C42G G44U C46G: the self-cleavage came out at 0.

As to G30U C31A C37G C46U, the self-cleavage stood at 0.

Take G5A C23A U43A: the self-cleavage came to 0.01.

Consider C3U G21A U43A, for which the self-cleavage is 0.3.

As for G29C C37A C46G, the self-cleavage was 0.04.

G33C G40U G44U C45A: the self-cleavage was found to be 0.02.

A12C U20G A24U U38G: the self-cleavage stood at 0.

With G7U A16U G22C U38A, the self-cleavage stood at 0.02.

C10G A25C G40C C46U: the self-cleavage stood at 0.01.

For the variant C3A G19A A41C U43C, the self-cleavage was 0.06.

With U9C A16C G21C C42U, the self-cleavage was 0.03.

As to A6C U20C G22A, the self-cleavage was found to be 0.4.

Take C8U U9A G33C: the self-cleavage worked out at 0.06.

Take G1A A6U C31G C42U C45U: the self-cleavage was 0.08.

With A4C U20G U43G C45U, the self-cleavage is 0.01.

As to G1A A6G G29C, the self-cleavage turned out to be 0.06.

As to C8A C18U C45A, the self-cleavage stood at 0.07.

On to C15G G33A G40A, for which the self-cleavage is 0.03.

On to U20G G30A C42G, for which the self-cleavage came out at 0.08.

Consider G2U A39G C46G, for which the self-cleavage worked out at 0.01.

With C3A A6C G36A A41U, the self-cleavage amounted to 0.19.

Take G2U C3A G22C G27C U28A G33U: the self-cleavage came out at 0.13.

As for A6G G21A A39G C42U, the self-cleavage was determined as 0.03.

In the case of G1U A11G C15U A24U G40U C46G, the self-cleavage was determined as 0.

As to G22U U28G A41C, the self-cleavage is 0.05.

Turning to A16C G17C C42G, the self-cleavage came out at 0.04.

A11U G17U U34G: the self-cleavage stood at 0.02.

As to G2C G5U A14U, the self-cleavage turned out to be 0.06.

G1U C10G G22U G36U C37G: the self-cleavage came to 0.02.

For G1U G2U A4U G29A G30A, the self-cleavage was 0.07.

In the case of U9C C18G G30U G40A, the self-cleavage was determined as 0.02.

For the variant C3G C10U G22U U34G A41G, the self-cleavage is 0.04.

Consider G2A A24U G29C G33U U34C U38A U43G, for which the self-cleavage was 0.

For the variant G7C U34A U43A, the self-cleavage is 0.03.

In the case of C8G G27C A41U, the self-cleavage amounted to 0.02.

As to G7C A16U G19A, the self-cleavage worked out at 0.28.

Turning to C8U C23U A24U, the self-cleavage worked out at 0.22.

Turning to C15U G17C G22A, the self-cleavage was 0.09.

Turning to U9C A26U C31U U32C G33C, the self-cleavage came to 0.01.

Turning to C13G G21A A41G, the self-cleavage is 0.01.

As to A6C C10G A24U G27C U38G, the self-cleavage came to 0.01.

As for C8A U9A G21C A24U U28A C45G, the self-cleavage is 0.06.

For the variant G19A U20A G36C, the self-cleavage came to 0.03.

As for A12C G19C U28A G36A G40C C42A, the self-cleavage was 0.

For G17U A25G G35U, the self-cleavage worked out at 0.02.

For the variant A4G A11U C13U G40A, the self-cleavage worked out at 0.02.

Consider C13A U38C C46A, for which the self-cleavage came to 0.07.

On to G21U U34G G40A, for which the self-cleavage was found to be 0.01.

Consider G7A C10U A25U C45A C46G, for which the self-cleavage stood at 0.22.

For U9C C15U C18G C42G, the self-cleavage was determined as 0.01.

Consider G1C C10G G33U C45U, for which the self-cleavage was found to be 0.

Regarding G2A C3U A25C G30C C31G, the self-cleavage is 0.25.

Regarding U9A C18U U34C, the self-cleavage turned out to be 0.03.

As for G35C A41G C42U, the self-cleavage is 0.

In the case of G2C C10G U34A U38G, the self-cleavage was 0.

In the case of G7A U9A A16U G17C C18A U20C C37A A39G, the self-cleavage was 0.04.

With C8A U43G C45U, the self-cleavage came to 0.19.
